From the supplement of paper PMC8728848
This is one part of the list.

How the values were obtained:
Assay in all cases: glycan array binding signal (z-score within array); higher = stronger binding
Conditions in all cases: glycan notation: IUPAC condensed, linker removed
[1] = biological target: Neu5Ac(a2-3)Gal(b1-4)[Fuc(a1-3)]GlcNAc(b1-6)[Gal(b1-3)]GalNAc
How it was run: (§1)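 From the Consortium for Functional Glycomics database, 3228 arrays were curated, keeping only those whose protein sequence was available. Binding is given as a within-array Z-score averaged across arrays sharing a protein sequence and across linkers. Negative Z-scores can be read as non-binding.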

[2] = biological target: Neu5Ac(a2-3)Gal(b1-4)[Fuc(a1-3)]GlcNAc(b1-6)[Neu5Ac(a2-3)Gal(b1-3)]GalNAc
How it was run: as §1

[3] = biological target: Neu5Ac(a2-3)Gal(b1-4)[Fuc(a1-3)]GlcNAc6S
How it was run: as §1

[4] = biological target: Neu5Ac(a2-3)Gal6S(b1-4)GlcNAc
How it was run: as §1

[5] = biological target: Neu5Ac(a2-3)Gal6S(b1-4)[Fuc(a1-3)]GlcNAc
How it was run: as §1

Neu5Ac(a2-3)GalNAc = biological target: Neu5Ac(a2-3)GalNAc
How it was run: as §1

[6] = biological target: Neu5Ac(a2-3)GalNAc(b1-4)GlcNAc
How it was run: as §1

[7] = biological target: Neu5Ac(a2-3)[GalNAc(b1-4)]Gal(b1-4)Glc
How it was run: as §1

[8] = biological target: Neu5Ac(a2-3)[GalNAc(b1-4)]Gal(b1-4)GlcNAc
How it was run: as §1

[9] = biological target: Neu5Ac(a2-3)[GalNAc(b1-4)]Gal(b1-4)GlcNAc(b1-3)GalNAc
How it was run: as §1

[10] = biological target: Neu5Ac(a2-3)[Neu5Ac(a2-6)]GalNAc
How it was run: as §1

Neu5Ac(a2-6)Gal = biological target: Neu5Ac(a2-6)Gal
How it was run: as §1

[11] = biological target: Neu5Ac(a2-6)Gal(b1-3)GlcNAc(b1-3)[Gal(b1-4)GlcNAc(b1-6)]Gal(b1-4)Glc
How it was run: as §1

Neu5Ac(a2-6)Gal(b1-4)Glc = biological target: Neu5Ac(a2-6)Gal(b1-4)Glc
How it was run: as §1

[12] = biological target: Neu5Ac(a2-6)Gal(b1-4)GlcNAc
How it was run: as §1

[13] = biological target: Neu5Ac(a2-6)Gal(b1-4)GlcNAc(b1-2)Man(a1-3)Man(b1-4)GlcNAc(b1-4)GlcNAc
How it was run: as §1

[14] = biological target: Neu5Ac(a2-6)Gal(b1-4)GlcNAc(b1-2)Man(a1-3)[Gal(b1-4)GlcNAc(b1-2)Man(a1-6)]Man(b1-4)GlcNAc(b1-4)GlcNAc
How it was run: as §1

[15] = biological target: Neu5Ac(a2-6)Gal(b1-4)GlcNAc(b1-2)Man(a1-3)[GlcNAc(b1-2)Man(a1-6)]Man(b1-4)GlcNAc(b1-4)GlcNAc
How it was run: as §1

[16] = biological target: Neu5Ac(a2-6)Gal(b1-4)GlcNAc(b1-2)Man(a1-3)[GlcNAc(b1-2)Man(b1-4)GlcNAc(b1-2)Man(a1-6)]Man(b1-4)GlcNAc(b1-4)GlcNAc
How it was run: as §1

[17] = biological target: Neu5Ac(a2-6)Gal(b1-4)GlcNAc(b1-2)Man(a1-3)[Man(a1-6)]Man(b1-4)GlcNAc(b1-4)GlcNAc
How it was run: as §1

[18] = biological target: Neu5Ac(a2-6)Gal(b1-4)GlcNAc(b1-2)Man(a1-3)[Neu5Ac(a2-6)Gal(b1-4)GlcNAc(b1-2)Man(a1-6)]Man(b1-4)GlcNAc(b1-4)GlcNAc
How it was run: as §1

[19] = biological target: Neu5Ac(a2-6)Gal(b1-4)GlcNAc(b1-2)Man(a1-6)Man(b1-4)GlcNAc(b1-4)GlcNAc
How it was run: as §1

[20] = biological target: Neu5Ac(a2-6)Gal(b1-4)GlcNAc(b1-2)Man(a1-6)[Gal(b1-4)GlcNAc(b1-2)Man(a1-3)]Man(b1-4)GlcNAc(b1-4)GlcNAc
How it was run: as §1

[21] = biological target: Neu5Ac(a2-6)Gal(b1-4)GlcNAc(b1-2)Man(a1-6)[GlcNAc(b1-2)Man(a1-3)]Man(b1-4)GlcNAc(b1-4)GlcNAc
How it was run: as §1

[22] = biological target: Neu5Ac(a2-6)Gal(b1-4)GlcNAc(b1-2)Man(a1-6)[Man(a1-3)]Man(b1-4)GlcNAc(b1-4)GlcNAc
How it was run: as §1

[23] = biological target: Neu5Ac(a2-6)Gal(b1-4)GlcNAc(b1-3)Gal(b1-3)GlcNAc
How it was run: as §1

[24] = biological target: Neu5Ac(a2-6)Gal(b1-4)GlcNAc(b1-3)Gal(b1-4)GlcNAc
How it was run: as §1

[25] = biological target: Neu5Ac(a2-6)Gal(b1-4)GlcNAc(b1-3)Gal(b1-4)GlcNAc(b1-3)Gal(b1-4)GlcNAc
How it was run: as §1

[26] = biological target: Neu5Ac(a2-6)Gal(b1-4)GlcNAc(b1-3)Gal(b1-4)[Fuc(a1-3)]GlcNAc(b1-3)Gal(b1-4)[Fuc(a1-3)]GlcNAc
How it was run: as §1

[27] = biological target: Neu5Ac(a2-6)Gal(b1-4)GlcNAc(b1-3)GalNAc
How it was run: as §1

[28] = biological target: Neu5Ac(a2-6)Gal(b1-4)GlcNAc6S
How it was run: as §1

Neu5Ac(a2-6)GalNAc = biological target: Neu5Ac(a2-6)GalNAc
How it was run: as §1

[29] = biological target: Neu5Ac(a2-6)GalNAc(b1-4)GlcNAc
How it was run: as §1

[30] = biological target: Neu5Ac(a2-6)GlcNAc(b1-4)GlcNAc
How it was run: as §1

[31] = biological target: Neu5Ac(a2-6)GlcNAc(b1-4)GlcNAc(b1-4)GlcNAc
How it was run: as §1

Neu5Ac(a2-8)Neu5Ac = biological target: Neu5Ac(a2-8)Neu5Ac
How it was run: as §1

[32] = biological target: Neu5Ac(a2-8)Neu5Ac(a2-3)Gal(b1-3)GalNAc(b1-4)[Neu5Ac(a2-8)Neu5Ac(a2-3)]Gal(b1-4)Glc
How it was run: as §1

[33] = biological target: Neu5Ac(a2-8)Neu5Ac(a2-3)Gal(b1-4)Glc
How it was run: as §1

B1: ConA (Canavalia ensiformis), P02866 (protein)
chain: MAISKKSSLFLPIFTFITMFLMVVNKVSSSTHETNALHFMFNQFSKDQKDLILQGDATTGTDGNLELTRVSSNGSPQGSSVGRALFYAPVHIWESSAVVASFEATFTFLIKSPDSHPADGIAFFISNIDSSIPSGSTGRLLGLFPDANVIRNSTTIDFNAAYNADTIVAVELDTYPNTDIGDPSYPHIGIDIKSVRSKKTAKWNMQNGKVGTAHIIYNSVDKRLSAVVSYPNADSATVSYDVDLDNVLPEWVRVGLSASTGLYKETNTILSWSFTSKLKSNEIPDIATVV
[1]
  glycan array binding signal (z-score): -0.182
[2]
  glycan array binding signal (z-score): -0.085
[3]
  glycan array binding signal (z-score): -0.292
[4]
  glycan array binding signal (z-score): -0.223
[5]
  glycan array binding signal (z-score): -0.168
Neu5Ac(a2-3)GalNAc
  glycan array binding signal (z-score): -0.289
[6]
  glycan array binding signal (z-score): -0.283
[7]
  glycan array binding signal (z-score): -0.26
[8]
  glycan array binding signal (z-score): -0.218
[9]
  glycan array binding signal (z-score): 0.937
[10]
  glycan array binding signal (z-score): -0.287
Neu5Ac(a2-6)Gal
  glycan array binding signal (z-score): -0.275
[11]
  glycan array binding signal (z-score): -0.227
Neu5Ac(a2-6)Gal(b1-4)Glc
  glycan array binding signal (z-score): -0.275
[12]
  glycan array binding signal (z-score): -0.26
[13]
  glycan array binding signal (z-score): -0.161
[14]
  glycan array binding signal (z-score): -0.068
[15]
  glycan array binding signal (z-score): 0.114
[16]
  glycan array binding signal (z-score): 0.146
[17]
  glycan array binding signal (z-score): 0.818
[18]
  glycan array binding signal (z-score): 0.969
[19]
  glycan array binding signal (z-score): -0.259
[20]
  glycan array binding signal (z-score): -0.212
[21]
  glycan array binding signal (z-score): -0.11
[22]
  glycan array binding signal (z-score): 0.287
[23]
  glycan array binding signal (z-score): -0.218
[24]
  glycan array binding signal (z-score): -0.285
[25]
  glycan array binding signal (z-score): -0.222
[26]
  glycan array binding signal (z-score): 0.022
[27]
  glycan array binding signal (z-score): -0.15
[28]
  glycan array binding signal (z-score): -0.278
Neu5Ac(a2-6)GalNAc
  glycan array binding signal (z-score): -0.275
[29]
  glycan array binding signal (z-score): -0.213
[30]
  glycan array binding signal (z-score): -0.226
[31]
  glycan array binding signal (z-score): -0.184
Neu5Ac(a2-8)Neu5Ac
  glycan array binding signal (z-score): -0.272
[32]
  glycan array binding signal (z-score): -0.188
[33]
  glycan array binding signal (z-score): -0.296
